Experimental data: the supplement of paper PMC10126150
Sequences with one replicate were seen in a single cluster, so their values are uncertain.

Test system: ATP
Experiment: switch fluorescence ratio, 500 uM ATP over buffer (Cy3 cluster intensity, sum of 5 cycles each) (fold (ratio)); higher = stronger signal-on switching upon ATP binding; sequences stand for … in TCGTCGGCAGCGTCAGATGTGTATAAGAGACAGTTTTTTTTTTTTTTTTTTTTTTTTT…TC
Details: aptamer strand: ATP DNA aptamer (quencher-CACCTGGGGGAGTATTGCGGAGGAAGG + anchor), 100 nM annealed; ATP concentration: 500 uM; one replicate
How it was run: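 Clusters carrying Cy3-labelled switching strands on a modified Illumina MiSeq flow-cell were annealed to 100 nM quencher-labelled ATP aptamer and imaged in selection buffer. They were imaged again after 15 min with 500 uM ATP at 22 °C, over five buffer/ATP cycles with NaOH stripping and re-annealing in between. For each cluster, the fluorescence ratio is the summed Cy3 intensity of the target cycles divided by that of the buffer cycles, averaged per switch-domain sequence. Clusters outside 100-1000 RFU were left out.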
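Further: ATP exposure 15 min at 22 °C before imaging.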

Row | Sequence | switch fluorescence ratio
1 | ATCGACGCTC | 3.64
2 | TTGCTATTAC | 1.91
3 | CGCATTTACC | 3.35
4 | GCATCCTTTA | 1.04
5 | CCACGCGGCC | 3.04
6 | AGCTCTGGGG | 0.998
7 | TCTTCCGGCC | 1.55
8 | AGTGCTAGCA | 0.973
9 | AGTGTCCCAC | 0.969
10 | AGAAAGGTAA | 1.03
11 | ATTGGAATAA | 0.963
12 | TCGAATGCTC | 1.18
13 | GAACACGGCC | 1.13
14 | TTTAGCGGG | 1
15 | AGGAAGTGAC | 1.01
16 | GCACTGGGGG | 1
17 | GGTCAGACGG | 0.98
18 | CATACTCTAC | 1.31
19 | CGTGGGGCTG | 1.12
20 | GTGGTGGGCG | 1.01
21 | AGGGTGCAGG | 0.993
22 | TAATGCATC | 1.07
23 | CTTCATGGAG | 1.04

Row | Sequence | switch fluorescence ratio
24 | GAAAAGAGTA | 1.01
25 | GCTAGCAAAG | 0.981
26 | GACCTCTCCG | 1.98
27 | GAGCTACAGT | 1.01
28 | TACCCCATTA | 1.06
29 | TACTCTCTG | 1.07
30 | ATCTTAATTT | 1.01
31 | GCTGTACTCG | 1.56
32 | AGGGGCTCAG | 1.03
33 | TCAATGGATC | 0.999
34 | AACACCGGC | 1.16
35 | GAATACAGTG | 1.06
36 | ACGTGCTGGG | 0.963
37 | ACTGCATACA | 1.14
38 | ACGGGGCAAC | 1.07
39 | CCCCTGGAAG | 1.04
40 | TTGTTGATTC | 0.976
41 | GTAAGCGGCA | 1.01
42 | ACCGGAGGAC | 1.13
43 | ATTACAGCTG | 0.992
44 | TTTCGTCCCT | 1.03
45 | GGGGCCATGT | 0.995
46 | TTTTCAATT | 1.03

Row | Sequence | switch fluorescence ratio
47 | GACATCGACA | 1.01
48 | GTTTCACTTC | 0.96
49 | GCCGTGTGTG | 1.01
50 | CGTGATTTAG | 0.953
51 | CATAGAGGTA | 1.01
52 | GGATTTGTCT | 0.975
53 | TTACGTTTAA | 1.24
54 | AGCTGTTCTC | 1.06
55 | TTGTATCCTA | 0.978
56 | CAACAACGGG | 1.05
57 | TCGTACAAGG | 1.04
58 | CCTCGAAGGG | 1.01
59 | ATCAGATTTG | 1
60 | GTTCCGCCCC | 2.42
61 | TATGGGGCGG | 1.07
62 | TCTATCTACG | 1.05
63 | TTTCAGGTAT | 1.02
64 | TGTCATTGAG | 0.991
65 | GTAAGATTGG | 0.971
66 | TTGGTAGACC | 0.986
67 | ACTCCACCTC | 1.55
68 | ATTTACGGAT | 1
69 | CAGGCCATGT | 0.966

Row | Sequence | switch fluorescence ratio
70 | AGGGCACCCC | 0.966
71 | GAATTACACA | 1.02
72 | GCCTGAATCA | 0.946
73 | ACTCAATTGG | 0.996
74 | GCGTTGAAAA | 1.01
75 | ATGCAAAATG | 1.53
76 | ATGCGTATAG | 0.978
77 | TAAACGCGAC | 2.34
78 | GTACGGTCCT | 1.02
79 | AGGAGCCTTA | 1.06
80 | GTAAAAAGAC | 1.11
81 | CTGAACGAAC | 1.69
82 | TAAAAATAAC | 1.22
83 | TACAGGCTGC | 1.02
84 | CATCGTTCAA | 1.14
85 | GAGGTATAGT | 1.01
86 | GACGCGATGA | 2.73
87 | CGATATATGT | 0.937
88 | AGTTTTTCGG | 0.982
89 | ATAACCCCTC | 1.06
90 | ACACGGCCGA | 1.07
91 | TTCGGACCAC | 1.1
92 | CTGGCCTGTG | 0.987

Row | Sequence | switch fluorescence ratio
93 | TAGAGCCCAA | 1.03
94 | ATATCGGTTC | 0.949
95 | CGGCTTACCA | 1.04
96 | ATTCGCCCAG | 1.62
97 | TTAAATCATC | 1.06
98 | AGAGGGGTCC | 1.05
99 | CTCATTCGGC | 1.06
100 | GCGAACCCTC | 1.09
101 | CCATTTCCGG | 1.02
102 | CGGGATAGG | 1.02
103 | AATTCCCCCG | 1.4
104 | AAGAAAAAAA | 1.02
105 | CAATTTCGCA | 1.13
106 | GTTTAAATCA | 0.996
107 | AGATGCTGGG | 0.943
108 | ACGCCCCCCA | 1.96
109 | CGGAATAACA | 1.09
110 | AAGGTTTAGG | 0.992
111 | TTCGTTTCAA | 1.02
112 | TTTGTGCCTA | 0.961
113 | GACTTCCCGC | 2.6
114 | TGGGATCGGG | 0.985
115 | TGGGAAG | 0.999

Row | Sequence | switch fluorescence ratio
116 | ATCAGTGGAT | 1
117 | TCTTACCCCC | 3.05
118 | CCCCAATAG | 3.91
119 | CGATAAGAGA | 0.995
120 | GAAGCAAGGG | 3.05
121 | TTGCCCGTGA | 1.07
122 | GCGCATTTTG | 1.07
123 | ACGGGATCTG | 0.971
124 | CCATTTGGGG | 1.02
125 | TTGGCAAAA | 0.968
126 | AGATCTGTCG | 1.06
127 | ATCAAGAGTG | 0.998
128 | TAATTGATGG | 1.01
129 | CTGCATATGA | 1.54
130 | TGCAGTCGAA | 1.02
131 | CGACAGTTAG | 1
132 | ACTAGGATCT | 0.994
133 | TAATATCGAG | 0.957
134 | ATATGATTCT | 0.975
135 | CAGTTCCGAG | 1.3
136 | TATTCTAATA | 1
137 | CAAGGGCGGT | 1.01
138 | AACAGCCTGC | 0.976

Row | Sequence | switch fluorescence ratio
139 | ATGGGGCGGG | 0.99
140 | ATTCGGGGTC | 0.965
141 | GAGCATCGCA | 1.06
142 | GTGGAAAACC | 0.958
143 | TTATCTGCCA | 0.992
144 | GGCTGGT | 0.994
145 | CAGTGGGTTC | 0.958
146 | GAGGTCACGT | 1.05
147 | TAACGTTTCC | 1.55
148 | TATTTTGATG | 0.997
149 | CTTAGCAGGG | 1.04
150 | CCTTTTTGCC | 0.972
151 | TACAATAGAG | 1.02
152 | CTGCCGGGTA | 1.05
153 | ATATCGTAAA | 1.01
154 | CATTAGGCG | 0.993
155 | TGGTGTTAT | 0.993
156 | GTCCCCAAGC | 1.17
157 | ATATAATGTG | 1.04
